Data as given in publication PMC4336329 (PLoS ONE, 2015).
Hit rate of the full screen: of about 310,000 compounds, about 14,000 (4.5%) showed an effect of 50% or more. Effects have a minus sign here. This is one part of the list.

What follows are compounds tested against human ether-à-go-go-related gene (hERG) potassium channel (human, UniProt Q12809) (assay: primary screen, population patch clamp on CHO cells stably expressing hERG).
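Also: peak tail current of the secondary pulse compared with the same well before compound.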

Chain of human ether-à-go-go-related gene (hERG) potassium channel (Q12809 whole entry, looked up): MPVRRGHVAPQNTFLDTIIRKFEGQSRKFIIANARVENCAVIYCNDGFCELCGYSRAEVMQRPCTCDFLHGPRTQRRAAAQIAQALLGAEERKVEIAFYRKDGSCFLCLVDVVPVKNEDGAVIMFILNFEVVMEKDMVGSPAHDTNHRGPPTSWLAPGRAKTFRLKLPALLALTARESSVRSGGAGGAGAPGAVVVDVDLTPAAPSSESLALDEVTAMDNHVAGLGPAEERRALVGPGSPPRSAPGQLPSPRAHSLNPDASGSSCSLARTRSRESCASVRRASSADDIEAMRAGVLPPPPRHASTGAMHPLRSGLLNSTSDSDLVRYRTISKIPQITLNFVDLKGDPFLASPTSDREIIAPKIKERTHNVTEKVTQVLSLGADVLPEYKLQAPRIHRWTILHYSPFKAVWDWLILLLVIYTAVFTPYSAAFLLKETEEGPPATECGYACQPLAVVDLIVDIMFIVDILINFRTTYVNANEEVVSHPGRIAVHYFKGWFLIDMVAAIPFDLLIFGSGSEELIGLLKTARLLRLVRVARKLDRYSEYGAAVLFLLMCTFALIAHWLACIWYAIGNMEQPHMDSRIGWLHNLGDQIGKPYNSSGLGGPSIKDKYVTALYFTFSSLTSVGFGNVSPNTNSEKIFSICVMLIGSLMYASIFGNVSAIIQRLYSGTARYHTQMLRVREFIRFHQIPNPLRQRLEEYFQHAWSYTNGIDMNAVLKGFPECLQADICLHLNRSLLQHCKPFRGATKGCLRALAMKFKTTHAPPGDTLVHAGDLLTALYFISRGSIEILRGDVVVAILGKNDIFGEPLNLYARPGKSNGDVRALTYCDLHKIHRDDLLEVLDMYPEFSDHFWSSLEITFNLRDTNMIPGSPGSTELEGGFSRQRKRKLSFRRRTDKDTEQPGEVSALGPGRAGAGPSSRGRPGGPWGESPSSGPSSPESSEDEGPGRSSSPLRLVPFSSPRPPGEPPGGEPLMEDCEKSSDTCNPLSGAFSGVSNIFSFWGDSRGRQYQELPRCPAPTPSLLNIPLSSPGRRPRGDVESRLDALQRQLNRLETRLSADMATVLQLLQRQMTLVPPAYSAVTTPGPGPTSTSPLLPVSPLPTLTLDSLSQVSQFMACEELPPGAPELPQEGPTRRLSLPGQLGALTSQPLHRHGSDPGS

| Structure (SMILES) | hERG current change (%, negative = inhibition) at 10uM [%] |
| --- | --- |
| Cc1c(Br)c([N+](=O)[O-])nn1CC(=O)NCc1ccco1 | -5.27 |
| CN(C)c1nc(Nc2ccccc2)nc(Oc2ccc(=O)[nH]n2)n1 | 23.6 |
| CCOC(=O)C1=C(C)NC(=S)NC1c1ccsc1 (stereo not drawn) | -4.29 |
| CC(=O)c1cccc(Nc2nc(-c3sc(N)nc3C)cs2)c1 | 2.72 |
| CCOc1ccc(/C=C/C(O)=C2/C(=O)NC3(C)CC2c2ccccc2O3)cc1OC (stereo not drawn) | 8.6 |
| COCCN(C(=O)CCSc1ccc(F)cc1)c1c(N)n(Cc2ccccc2)c(=O)[nH]c1=O | -7.5 |
| COc1cccc(C(=O)NC(=S)Nc2nnn(C)n2)c1 | 5.1 |
| Cc1cc(C(c2ccc(C)o2)c2ccc(C)o2)c(O)c([N+](=O)[O-])c1 | 4.31 |
| CN(NC(=O)c1ccccc1)c1ncc(C(F)(F)F)cc1Cl | 6.45 |
| Cc1ccccc1Cn1c(C)nc2ccc([N+](=O)[O-])cc2c1=O | 0.842 |
| CCC(C)(C)NC(=O)C(c1ccc(C)cc1)N(CCN1CCOCC1)C(=O)CNC(=O)c1cccs1 (stereo not drawn) | 2.71 |
| CCOc1cc(CNCc2cccs2)cc(Br)c1OC.Cl | -2.1 |
| O=[N+]([O-])c1cncc([N+](=O)[O-])c1Nc1cccc(O)c1 | 19.9 |
| CC1=NNC(=O)C1C(c1ccccc1)C(C#N)C#N (stereo not drawn) | 0.593 |
| COc1cc(-c2cc(=O)c3c(O)c(OC)c(OC)c(OC)c3o2)cc(OC)c1OC | 1.38 |
| CCCCOc1cccc(-c2cc(C(=O)NNC(=S)NCC)c3ccccc3n2)c1 | 7.47 |
| Cc1cc(C)cc(Oc2cc(NC(=O)c3cn(C)nc3C)cc([N+](=O)[O-])c2)c1 | 3.51 |
| COc1ccc(-n2cc(CNC3CCC(O)CC3)c(-c3cccc(F)c3)n2)cc1 (stereo not drawn) | -45.3 |
| Cc1cc(C(=O)CSc2nc(N)cc(=O)[nH]2)c(C)n1-c1cccc(F)c1 | -5.25 |
| CCOc1ccccc1C(=O)NC1CCNCC1 | 2.31 |
| O=C(NCCCCCNC(=O)c1ccco1)c1ccco1 | 12.6 |
| COc1ccc(S(=O)(=O)N2CCC(C(=O)N[C@H](C(=O)N3CCCCCC3)C(C)C)CC2)cc1 | 6.68 |

| Structure (SMILES) | hERG current change (%, negative = inhibition) at 10uM [%] |
| --- | --- |
| CSc1nc2c(c(=O)[nH]1)CCCC2 | 20.2 |
| CC1CCc2c(nc3ncnn3c2NCCc2ccccc2F)C1 (stereo not drawn) | -15.7 |
| COc1ccc(N(CC(=O)NCc2cccs2)S(=O)(=O)c2c(C)nn(C)c2C)cc1 | -15.4 |
| O=C(CSc1nc(O)c(C2CCCCC2)c(=O)[nH]1)Nc1ccccc1Cl | 5.18 |
| CN(C)c1ccc(CNC23CN4CN(CN(C4)C2)C3)cc1 | -3.51 |
| Cc1ccc(C)c(-c2nc3cc(N)ccc3o2)c1 | 6.2 |
| O=C(NC1CCCCC1)N1CCN(c2ncccn2)CC1 | 15.1 |
| CC(c1ccccc1)N1C(=O)C2C3C=CC(C4CC34)C2C1=O (stereo not drawn) | 6.69 |
| CC(C)(C)OC(=O)NC(Cc1ccccc1)C(=O)NCCCC(=O)O (stereo not drawn) | 8.28 |
| Cc1ccc(C(=O)OCCc2c(C)[nH]n(-c3ccccc3)c2=O)cc1 | 2.97 |
| CO/N=C(\CS(=O)(=O)Cc1ccc(OC)cc1)c1ccc(Cl)cc1 | 1.62 |
| O=C(Cc1ccccc1)Nc1nc(=O)c2ccccc2s1 | 5.29 |
| O=S1(=O)CC/C(=N/Nc2ccccn2)c2cc(F)ccc21 | 17.9 |
| CN(C)/C=C/C(=O)c1ccc(F)cc1F | -11.3 |
| CN1CCN(C(=O)c2cc3cc(Cl)ccc3[nH]2)CC1.Cl | -35.7 |
| COc1ccc(C)cc1NC(=O)CN1C(=O)COc2ccc(S(=O)(=O)N3CCC(C)CC3)cc21 | 26.3 |
| O=c1[nH]c2ccc(NS(=O)(=O)c3ccc4ccccc4c3)cc2[nH]1 | 4.22 |
| Clc1ccc(-c2nc(N3CCOCC3)nc3ccccc23)cc1 | 7.36 |
| Cc1cc(NC(=O)C2CCCC2)n(-c2nc3ccccc3[nH]2)n1 | 9.26 |
| O=C(NCc1cccs1)C1CCN(S(=O)(=O)c2cccc3cccnc23)CC1 | -11.5 |
| CCOc1ccc(S(=O)(=O)N2CCCCC2)cc1NC(=O)Cc1cccc(C(F)(F)F)c1 | -2.63 |
| COc1cc2c(cc1OC)CN(C(=O)CCNS(=O)(=O)c1ccc(Br)cc1)CC2 | -36.8 |

| Structure (SMILES) | hERG current change (%, negative = inhibition) at 10uM [%] |
| --- | --- |
| CCn1c(SCC(=O)OC)nnc1-c1ccncc1 | 7.28 |
| CCN(CC)C(=O)Cn1cc(C(=O)C(=O)NCC2COc3ccccc3O2)c2ccccc21 (stereo not drawn) | -31.3 |
| CCCCn1nnnc1SCC(=O)Nc1ccc(N(C)C)cc1 | 2.43 |
| O=C1NN=C(c2ccc(Cl)cc2)CC1c1cccc(Br)c1 (stereo not drawn) | 4.07 |
| COc1ccc(CC(=O)NCC2COc3ccccc3O2)cc1 (stereo not drawn) | -1.08 |
| CCS(=O)(=O)CCn1c([N+](=O)[O-])cnc1C | 3.01 |
| NC(=O)c1c(NC(=O)c2ccc([N+](=O)[O-])o2)sc2c1CCCC2 | 25.3 |
| CCc1nn(C(CC)C(=O)NCCCc2ccccc2)c(=O)c2cc3occc3n12 (stereo not drawn) | -8.43 |
| COc1ccc(CCN2CC(C(=O)Nc3cc(F)ccc3F)CC2=O)cc1OC (stereo not drawn) | -0.742 |
| CN(C)C(/C=C/Nc1ccccc1F)=C(C#N)C#N | 9.69 |
| CCOC(=O)Cc1csc(NC(=O)c2cc(C)on2)n1 | 5.17 |
| O=C(CNC(=O)c1ccc2c(c1)OCCO2)N/N=C/c1ccc(O)cc1O | 0.243 |
| COc1ccc(N2CCN(C(=O)CN3C(=O)NC(c4ccc(OC)cc4)(c4ccc(OC)cc4)C3=O)CC2)cc1 | -4.55 |
| CCOC(=O)C1=C(O)C(=O)N(Cc2cccnc2)C1c1ccc(OC)cc1 (stereo not drawn) | 22.6 |
| COc1ccc(S(=O)(=O)N(C)CC(=O)NCc2ccccc2)cc1OC | 4.31 |
| Cc1ccc(NC(=O)NCCCN2CCCC2=O)cc1C | 18.6 |
| CSc1nsc(SC)c1NC(=O)OCc1ccccc1 | -11 |
| Cc1ccc(S(=O)(=O)N2CCCC2CNC(=O)C(=O)Nc2ccc(F)cc2F)cc1 (stereo not drawn) | -30.9 |
| CN1CC(C(=O)c2ccc(Cl)cc2)C(c2ccccc2F)C1 (stereo not drawn) | -46.5 |
| Nc1nnnn1/N=C/c1cc(Cl)cc(Cl)c1O | 20.2 |
| CC1(C)CC(NC(=O)CCC2CCCC2)CC(C)(C)N1 | -2.63 |
| CCOC(=O)c1c(NC(=O)CSC(=S)N2CCOCC2)sc(C)c1C | -8.09 |

| Structure (SMILES) | hERG current change (%, negative = inhibition) at 10uM [%] |
| --- | --- |
| Cc1ccccc1C(=O)NNC(=O)C(=O)Nc1cccc(Cl)c1C | 10.5 |
| Cc1ccc(-c2nnc(SCC(=O)N/N=C/c3ccccc3C(=O)O)n2-c2ccc(C)cc2)cc1 | 3.7 |
| O=C(NCCC1=CCCCC1)c1cc(S(=O)(=O)N2CCOCC2)c(Cl)cc1Cl | 10.7 |
| O=C(NCCO)c1ccc(Oc2ccc(C(F)(F)F)cc2[N+](=O)[O-])cc1 | -0.131 |
| COc1ccc(CCNC(=O)c2c(C)nn(-c3ccccc3)c2Cl)cc1OC | 10.6 |
| O=[N+]([O-])c1ccc(N/N=C/c2ccc(OCc3cccc4ccccc34)cc2)nc1 | 13.4 |
| COc1cccc(CN(C)CC(=O)Nc2cccc(S(N)(=O)=O)c2)c1OC | -4.27 |
| Cn1c(O)c(/C=N/NC(=O)c2ccncc2)c(=O)n(C)c1=S | 13.4 |
| CC(NC(=O)COC(=O)c1ccc(CO)cc1)C1CC2CCC1C2 (stereo not drawn) | 7.65 |
| N#C/C(=C\C1=C(N2CCOCC2)C(=C/c2cccc([N+](=O)[O-])c2)/CC1)C(=O)Nc1ccccc1F | 5.79 |
| CC(=O)Nc1cccc(-c2nnc3n2CC(C)S3)c1 (stereo not drawn) | 14.3 |
| CCCCC(=O)Nc1nnc(S(=O)(=O)N2CCCc3ccccc32)s1 | 6.69 |
| Cc1cccc(OCC(=O)OC2CCN(C)CC2)c1.Cl | 0.454 |
| CCN(CC)c1ccc2c(c1)C(=O)N(C)C2=O | 10.6 |
| Cc1cc(/C=C2/NC(=O)NC2=O)c(C)n1-c1cccnc1 | 9.26 |
| COc1ccc(/C=C/C(=O)NC(=S)NN2CCCCC2c2cccnc2)cc1OC (stereo not drawn) | 3.25 |
| COC(=O)c1ccc(NC(=O)COC(=O)C2=NN(c3ccccc3)C(=O)CC2)cc1 | 0.388 |
| O=C(Cc1ccc(-c2ccccc2)cc1)Nc1ccccn1 | 22.3 |
| COc1ccc(-c2nn(-c3ccccc3)cc2C(=O)Nc2ccc(C(=O)O)cc2)cc1OC | 11.1 |
| CC(C)(C)c1ccc(OCCC(=O)NCC(c2cccs2)N2CCOCC2)cc1 (stereo not drawn) | -43.9 |
| C#CCOCCOCCOCCNc1nc(N2CCN(C(=O)[C@H]([C@@H](C)CC)n3cc([C@@H](N)Cc4ccc(O)cc4)nn3)CC2)nc(N2CCN(C(=O)[C@H]([C@@H](C)CC)n3cc([C@@H](N)Cc4ccc(O)cc4)nn3)CC2)n1.Cl | 8.94 |
